Article PMC4336329 (PLoS ONE, 2015)
Screen size: about 310,000 compounds; about 2,200 (0.71%) showed an effect of 50% or more. The effect is printed as a negative number. The list shows a part of the results.

Target: human ether-à-go-go-related gene (hERG) potassium channel (human, UniProt Q12809)
Assay: primary screen, population patch clamp on CHO cells stably expressing hERG

Sequence of human ether-à-go-go-related gene (hERG) potassium channel (Q12809 whole entry, looked up): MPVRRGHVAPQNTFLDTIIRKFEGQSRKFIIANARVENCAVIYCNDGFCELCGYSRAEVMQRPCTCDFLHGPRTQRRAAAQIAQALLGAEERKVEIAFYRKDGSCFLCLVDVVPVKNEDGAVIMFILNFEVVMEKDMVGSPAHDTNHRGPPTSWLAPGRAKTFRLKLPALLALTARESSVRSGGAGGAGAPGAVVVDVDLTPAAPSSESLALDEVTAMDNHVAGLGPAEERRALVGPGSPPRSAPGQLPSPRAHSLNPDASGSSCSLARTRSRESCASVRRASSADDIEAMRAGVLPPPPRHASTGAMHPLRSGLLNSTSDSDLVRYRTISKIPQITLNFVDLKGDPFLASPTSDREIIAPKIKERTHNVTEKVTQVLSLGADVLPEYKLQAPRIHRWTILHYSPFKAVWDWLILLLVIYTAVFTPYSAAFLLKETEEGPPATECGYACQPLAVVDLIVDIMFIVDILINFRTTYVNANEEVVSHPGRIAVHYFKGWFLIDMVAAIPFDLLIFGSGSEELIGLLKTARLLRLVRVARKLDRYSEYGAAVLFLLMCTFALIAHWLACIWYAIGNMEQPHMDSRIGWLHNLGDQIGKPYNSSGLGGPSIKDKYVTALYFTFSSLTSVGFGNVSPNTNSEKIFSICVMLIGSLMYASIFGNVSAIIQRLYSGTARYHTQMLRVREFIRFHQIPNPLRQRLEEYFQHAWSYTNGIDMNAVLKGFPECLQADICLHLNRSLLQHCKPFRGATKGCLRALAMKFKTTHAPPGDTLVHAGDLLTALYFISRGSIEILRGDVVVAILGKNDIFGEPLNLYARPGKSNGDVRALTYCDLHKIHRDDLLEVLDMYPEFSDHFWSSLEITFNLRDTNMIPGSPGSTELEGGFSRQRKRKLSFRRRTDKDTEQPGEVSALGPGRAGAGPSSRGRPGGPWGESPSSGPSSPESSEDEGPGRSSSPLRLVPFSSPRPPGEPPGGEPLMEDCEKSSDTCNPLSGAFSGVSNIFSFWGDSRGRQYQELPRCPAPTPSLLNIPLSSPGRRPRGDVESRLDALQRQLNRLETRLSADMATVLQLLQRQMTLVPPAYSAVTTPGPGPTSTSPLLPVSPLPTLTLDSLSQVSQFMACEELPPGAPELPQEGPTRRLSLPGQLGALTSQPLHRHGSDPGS

Row | SMILES | hERG current change (%, negative = inhibition) at 1uM [%]
1 | CCc1cc(C(=O)Cc2ccccn2)c(O)cc1O | 10.3
2 | CCS(=O)(=O)N1CCN(c2ccc(Cl)cc2[N+](=O)[O-])CC1 | -0.234
3 | CCOc1ccc(-c2nc(CSc3nnc(N)s3)cs2)cc1OC | 2.61
4 | COc1ccc(C(=O)Cc2cnn(-c3ccccc3)c2)c(O)c1 | 12.2
5 | Cc1nnsc1-c1onc(C)c1C(=O)Nc1cc(Cl)cc(Cl)c1 | 16.9
6 | NC(=S)n1[nH]c(-c2ccccc2)c(N=Nc2ccccc2C(=O)N2CCOCC2)c1=O | 4.27
7 | O=C(CC1C(=O)NCCN1Cc1ccccc1C(F)(F)F)NC1CCCCCC1 (stereo not shown) | 16.1
8 | CCCC(C)C(=O)Nc1ccc(S(=O)(=O)Nc2nccs2)cc1 (stereo not shown) | 14.9
9 | C/C(=N\NC(=O)CSCc1ccccc1Cl)c1cc(O)ccc1O | 5.96
10 | CCN(CC(=O)Nc1ccccc1OC)C(=O)c1ccccc1Sc1ccccc1C#N | 11.3
11 | COc1ccc(S(=O)(=O)Nc2cc3c4c(c2)CCC(=O)N4CCC3)cc1C | 5.07
12 | COc1ccc(NS(=O)(=O)c2cc3c(cc2C)N(C)CCO3)cc1 | 5.55
13 | O=c1cc(C(F)(F)F)[nH]c2ccc(OC(F)(F)F)cc12 | 7.38
14 | CCC(=O)c1ccc(OCC(=O)OCC(=O)NCC2CCCCC2)cc1 | 8.21
15 | Nc1nn2c(C(F)(F)F)cc(=O)[nH]c2c1N=Nc1cccc(F)c1 | 14.2
16 | CCC(C(=O)NC1CCCC1)N(C(=O)Cn1nnc(-c2ccc(C)o2)n1)c1ccc(OC)c(OC)c1 (stereo not shown) | 7.35
17 | O=C(CSc1ncccc1C(=O)O)NC1CCCCC1 | 29.3
18 | O=C(COC(=O)CNC(=O)C12CC3CC(CC(C3)C1)C2)Nc1ccccc1 | -7.19
19 | COC(=O)c1sccc1NC(=O)Cc1ccc(OC)c(OC)c1 | 15.9
20 | O=C(Nc1ccc(Cl)cc1)Nc1cccc2nsnc12 | 4.32
21 | CN(C)c1ncnc2c1NC1=C(S2)C(=NCCCC(=O)O)CC(C)(C)C1 | 0.211
22 | COc1ccc(NC(=O)c2ccccc2-c2ccccc2)cc1 | 10.9

Row | SMILES | hERG current change (%, negative = inhibition) at 1uM [%]
23 | Cc1cccc(C(=O)Nc2ccc(S(=O)(=O)N3CCOCC3)cc2C)c1 | 17.6
24 | Cn1c(=O)c(Oc2ccc(Cl)cc2)c(O)c2ccccc21 | 23.6
25 | Cc1cccc(OCC(=O)O/N=C(\N)Cc2ccc(Cl)cc2)c1 | 5.63
26 | CCOc1ccc(N(CC(=O)NCc2ccc(F)cc2)C(=O)CCC(=O)Nc2nccs2)cc1 | 15.6
27 | CCNC(=S)NNC(=O)c1cc(-c2cc(C)ccc2C)nc2ccccc12 | 17.5
28 | CC1=NN(C(N)=S)C(=O)C1N=Nc1ccccc1O (stereo not shown) | 19.7
29 | O=C(CSc1nnc(Cc2ccccc2)n1-c1cccc(Cl)c1)NNC(=O)Cc1ccccc1 | 15
30 | COc1ccc(C(CNC(=O)c2cccc3cccnc23)N(C)C)cc1 (stereo not shown) | 7.3
31 | CCn1nc(NC(=O)COC)c2cc3cc(C)ccc3nc21 | 9.09
32 | Cc1ccc(Cl)cc1N1CCN(S(=O)(=O)c2cn(C)cn2)CC1 | 9.22
33 | COCCN(C(=O)c1ccc(OC2CCN(S(=O)(=O)N(C)C)CC2)cc1)C(C)C | 11.1
34 | CCN(CC)c1cc(-c2ccccc2)ncn1.Cl | 7.81
35 | CC(C)(CO)NC(=O)C12CC3CC(CC(Br)(C3)C1)C2 | 15.3
36 | Cc1cccc(-c2nc(CS(=O)CC(=O)N3CCN(C)CC3)c(C)o2)c1 (stereo not shown) | 23.2
37 | CCOC(=O)c1cc(NC(=O)Nc2ccccc2Cl)c(C)nc1C | 14.3
38 | Cc1sc2nc(SCCO)n(-c3ccccc3)c(=O)c2c1C | 15.6
39 | Cc1cc(C)n2nc(CC(=O)NNC(=O)COc3cccc(C)c3C)nc2n1 | 18.7
40 | COc1ccc(/C=C(\NC(=O)c2ccc(Cl)cc2)C(=O)NCCCN2CCOCC2)cc1OC | 9.09
41 | N#CC1C(=O)NC(N2CCN(c3ccccc3)CC2)=NC12CCCCC2 (stereo not shown) | -1.07
42 | CCN1CCN(c2cc(C)c3cc(NC(=S)N4CCOCC4)ccc3n2)CC1 | 0.159
43 | CCOc1ccc(S(N)(=O)=O)cc1-c1nc2c(C(C)(C)C)nn(C)c2c(=O)[nH]1 | 12
44 | Cc1ccc(S(=O)(=O)/N=C(/c2ccccc2)N(C)C)c(C)c1 | 20.4

Row | SMILES | hERG current change (%, negative = inhibition) at 1uM [%]
45 | CN1CCN(C(=O)c2cccn(Cc3c(Cl)cccc3Cl)c2=O)CC1 | 12.1
46 | COc1cc(C=O)ccc1OCCSc1ccc(C)cc1 | -3.34
47 | Cc1c(Br)ccc(NC(=O)Cn2nc(-c3cccs3)ccc2=O)c1C | 25.7
48 | CCC(C(=O)Nc1ccccc1OC)n1c(C(=O)OC)cc2ccsc21 (stereo not shown) | -4.62
49 | CCCCCC(=O)N(CN1C(=O)CCC1=O)c1ccccc1 | 13.9
50 | CC1=C(C(=O)OC(C)C)C(c2cccc(F)c2)n2ncnc2N1 (stereo not shown) | 0.103
51 | S=C(NCc1ccccc1)NCC1COc2ccccc2O1 (stereo not shown) | 10.3
52 | COC(=O)C1=C(C)N(c2ccc(Cl)c(Cl)c2)C(=O)C1 | 2.22
53 | CN(CCc1ccccn1)Cc1ccc(Cl)c(Cl)c1 | -0.903
54 | CC(=O)c1cccc(NC(=S)NC(=O)c2ccccc2Cl)c1 | 2.07
55 | CCCCc1ccc(NC(=O)Nc2cccnc2)cc1 | 7.22
56 | O=C(NCC1CCCO1)C(c1ccc(F)cc1)N(C(=O)Cn1nnc(-c2ccc(F)cc2)n1)c1cccc(O)c1 (stereo not shown) | 9.23
57 | CCC(c1c(C)[nH]oc1=O)c1c(C)[nH]oc1=O | 11.8
58 | CN(C)c1ccc(C=NCC2(O)CCOC(C)(C)C2)cc1 (stereo not shown) | 8.68
59 | Oc1ccc(Cl)cc1C1=Nc2ccccc2N=C(c2ccco2)C1 | 3.46
60 | O=C(Nc1ccc(F)cc1)c1cccnc1N1CCCCC1 | 0.314
61 | CCN(CC)CCCN1C(=O)C2C(C(=O)Nc3ccc(C(C)C)cc3)C3C=CC2(O3)C1C(=O)NC1CCCCC1 (stereo not shown) | 17.4
62 | O=C(Nc1cc(C(F)(F)F)ccc1Cl)C(NCc1ccccc1)c1ccccc1 (stereo not shown) | 15.6
63 | COc1ccc(NC(=O)c2ccc(C)cc2Cl)c([N+](=O)[O-])c1 | 23.1
64 | Cc1ccccc1C(=O)N1CCC(C(N)=O)CC1 | 14.5
65 | CCN(CC(=O)Nc1ccccc1C(F)(F)F)C(=O)CCc1ccccc1 | 9.35
66 | O=[N+]([O-])c1ccc(O)c(/C=N/Nc2ccccc2[N+](=O)[O-])c1 | 7.14

Row | SMILES | hERG current change (%, negative = inhibition) at 1uM [%]
67 | O=C(Nc1cccc(NC(=O)C2CC2)n1)C1CC1 | 7.4
68 | COc1ccccc1C(=O)C1CCCN(Cc2ccc(Oc3ncccn3)cc2)C1 (stereo not shown) | -0.388
69 | CC[C@H](C)[C@H](NC(=O)c1ccccc1)C(=O)Nc1ccc(S(=O)(=O)Nc2cc(C)nc(C)n2)cc1 | 3.65
70 | O=C(NCCc1ccc(Cl)cc1)C1CCN(C(=O)N2CCOc3ccccc32)CC1 | -7.14
71 | O=C(Cc1ccccc1)N/N=C/c1cc(Br)cc(Br)c1O | 13.5
72 | COCCCNc1nc(SCc2ccccc2)nc2sc3c(c12)CCC3 | 26.3
73 | CCOc1ccccc1CNC(=O)CCCn1ccc2cc(S(=O)(=O)N3CCCC3)ccc21 | 3.88
74 | O=C(NCc1cccs1)c1cc(-c2ccccc2)nn1CC1CC(c2cccc([N+](=O)[O-])c2)=NO1 (stereo not shown) | -0.472
75 | Cc1ccc(C(N)=Nc2ccccc2)cc1 | 14.3
76 | CCOC(=O)c1c(NC(=O)CN2CCN(C)CC2)sc(C(=O)Nc2ccccc2)c1C | -0.328
77 | COc1cc(CCC(=O)OCC(=O)NCc2ccc(Cl)cc2)cc(OC)c1OC | 16.3
78 | Cn1cc(S(=O)(=O)N2CCCC2)cc1C(=O)NCc1ccc(F)cc1 | 3.87
79 | CCOC(=O)CC(NC(=O)Cc1ccccc1)c1ccccc1Cl (stereo not shown) | 0.874
80 | Cc1nn2c(-c3cccc(NC(=O)CSc4nc5ccccc5o4)c3)nnc2c2ccccc12 | -35.4
81 | COc1ccc(C2C(C(=O)Nc3ccccn3)=C(C)Nc3ncnn32)c(OC)c1 (stereo not shown) | 12.8
82 | Cc1cc(C(=O)Nc2ccc(S(=O)(=O)Nc3nccs3)cc2)c(C)o1 | -8.29
83 | O=C(NC1CCCC1)c1cc(-c2ccccc2)on1 | 3.64
84 | O=C(O)C(=O)O.O=C(c1ccccc1)N1CCN(C2CCCCC2)CC1 | -4.37
85 | COc1ccc(-c2nc3ccc([N+](=O)[O-])cc3o2)cc1 | 7.65
86 | CCOC(=O)c1c(NC(=O)c2ccc(N3C(=O)[C@@H]4[C@H](C3=O)[C@H]3C=C[C@@H]4C3)cc2)sc2c1CCCC2 | 4.8
87 | Cn1c(=O)c2c(ncn2CC(=O)Nc2ccc(Cl)cc2Cl)n(C)c1=O | 3.86
88 | Cc1cc(C)nc(Nc2ccc(Br)cc2C(=O)O)n1.Cl | 17.3
